According to PubChem BioAssay AID1508623 (National Center for Advancing Translational Sciences (NCATS), 2021):
Hit rate of the full screen: of about 48,000 compounds, about 450 (0.94%) were called active. Roughly 19% stayed inconclusive and do not appear here. Calls follow the shape of the dose curve; as a rule, active = well fitted inhibition curve with a large enough effect; inconclusive = small, poorly fitted or top-dose-only effect; inactive = no such curve, though single readings can be large or run the other way. Some of the results follow.

Assay: Primary qHTS for Identification of Small Molecule Inhibitors of Huntingtin Promoter Activity; also: nearly all actives have a fitted effect of over 50% in size
Conditions: HEK293 HTT promoter firefly luciferase reporter (activity 0% = vehicle and -100% = no light), 24 h; series mostly up to 57.5 µM; activity change, negative = inhibition: at the top concentration
Method in brief: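 Firefly luciferase signal from promoter-reporter HEK293 cells was scaled between vehicle (0%) and zero RLU (-100%). Compounds were tested at final concentrations of up to 57.5 uM over 24 h at 37 degrees C. PTC124 at 50 uM final served as control inhibitor.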

Activity change, negative = inhibition, inactive:
COc1ccc(CNC(=O)c2nn(C)c3c2CS(=O)(=O)c2ccccc2-3)cc1 -11.2%, O=C(COc1ccccc1)Nc1nnc(SCc2cc(=O)n3cc(Cl)ccc3n2)s1 8.14%, CC1=C(C(=O)O)N2C(=O)[C@@H](NC(=O)[C@H](N)c3ccccc3)[C@H]2SC1 14.7%, COc1ccc(CCNC(=O)CCS(=O)(=O)c2cc3c(cc2Cl)NC(=O)CO3)cc1OC 5.72%, CCc1nnc(SCC(=O)Nc2cccc(C(F)(F)F)c2)c2cc3oc(C)cc3n12 -27.9%, CCOC(=O)Cc1c(C)nc2c(-c3ccc(Cl)cc3)c(C(F)(F)F)nn2c1C -28.5%, Cc1oc(-c2ccccc2Cl)nc1CS(=O)(=O)CC(=O)NC(C)c1ccccc1 (stereo not drawn) -26.9%, Cc1ccc2onc(CNC(=O)NCc3ccccc3)c2c1 7.74%, CCC(C(=O)Nc1ccccc1OC)n1c(C(=O)OC)cc2sc(Cl)cc21 (stereo not drawn) -29.8%, CCOCCCNC(=O)c1ccc2c(=O)n(CCc3ccc(OC)c(OC)c3)c(=O)[nH]c2c1 -22.2%, CC(=O)N1CCc2cc(S(=O)(=O)NC(CC(C)C)C(=O)NCCc3cccc(C)c3)ccc21 (stereo not drawn) -5.37%, CCOc1ccccc1CNC(=O)CSc1nnc(C)c2c(C)n(-c3ccccc3)nc12 -12.8%, Cc1ccc(NC(=O)CC2Oc3ccccc3NC2=O)cc1C (stereo not drawn) 0.965%, Cc1c(C(=O)NCc2cccc(Cl)c2)sc2nc3n(c(=O)c12)CCCC3 20.1%, COc1ccc(CCNC(=O)CN2C(=O)COc3ccc(S(=O)(=O)N4CCCC4)cc32)c(OC)c1 -27%, Cc1c(C(=O)NCc2cccc(Br)c2)oc2ccc3c(c12)C(=O)CC(C)(C)O3 -8.56%, CCN(CC)CCCNC(=O)c1ccc(Cn2c(SCc3ccccc3)nc3cccnc32)cc1 24.1%, Cn1c(=O)n(Cc2c(F)cccc2Cl)c(=O)c2c1nc1n2CCN1c1ccc(F)cc1 -1.17%, Nc1nn(-c2ccccc2)nc1C(=O)OCc1ccc(Cl)cc1 3.95%, COc1c(C)cccc1C(=O)Nc1ccc(-c2nc3ccccc3s2)c(Cl)c1 -9.49%, CC1=C(C(=O)NCc2ccccc2F)C2(CCCCC2)OC1=O -10.7%, Cc1ccc(CCNC(=O)C2CCCN(c3nnc(C)c4c(C)n(-c5ccccc5)nc34)C2)cc1 (stereo not drawn) -1.91%, COc1ccc(-c2cn3nc(N4CCCC(C(=O)NCc5ccc(Cl)cc5)C4)sc3n2)cc1 (stereo not drawn) 37%, O=C(Nc1ccccc1Cl)N1CCC(CN2CCCC2)CC1 -17.7%, COc1cccc(-c2nc(CS(=O)(=O)CC(=O)NCc3cccc(Cl)c3)c(C)o2)c1 -13.8%, Cc1ccc(CSc2ncc(Cl)c(C(=O)Nc3nnc(C)s3)n2)cc1 -19.7%, COc1cc2ncc3c(-c4ccc(C)cc4)nn(-c4ccc(F)cc4F)c3c2cc1OC 9.61%, CN(C)CCCNc1cc(N2CCN(C3CCCCC3)CC2)c2noc3c2c1C(=O)c1ccccc1-3 -3.26%, Cc1ccc(NC(=O)CN2C(=O)c3cccnc3Oc3ccc(Cl)cc32)cc1 -18.8%, CCOC(=O)c1c(C)n(-c2ccccc2)c2ccc(OC(=O)COc3ccc(Cl)cc3)cc12 -6.98%, Cc1ccn2c(Nc3ccc4c(c3)OCCO4)c(-c3ccc(C)o3)nc2c1 38.7%, Cc1cc(Nc2ccccc2C)n2nc(Cc3ccc(Cl)cc3)nc2n1 -14.7%, Cc1c(C(=O)NCc2ccccc2Cl)sc2ncnc(N(C)C3CCCCC3)c12 -38.5%, CCNC(=O)C1CCN(S(=O)(=O)c2ccc3c(c2)CCCN3C(C)=O)CC1 -9.93%, CCOc1cc(C(=O)Nc2ccc(-c3cn4cccnc4n3)cc2)cc(OCC)c1OCC -18.2%, O=C(NCc1ccccc1)c1ccc(NC(=O)N2CC3CCCN3c3ccccc32)cc1 (stereo not drawn) -21.5%, Cn1c(=O)oc2cc(S(=O)(=O)CCC(=O)N3CCN(c4cccc(Cl)c4)CC3)ccc21 30.3% [at 11.5 µM], Cc1ccc(S(=O)(=O)c2nnn3c2nc(NCc2ccc4c(c2)OCO4)c2sccc23)cc1C -28.6%, Cc1nc2ccccn2c(=O)c1NC(=O)c1ccc(F)c(F)c1 6.34%, Cc1cccc(NC(=O)C2CCCN2S(=O)(=O)c2ccc3nc(-c4ccccc4)[nH]c3c2)c1 (stereo not drawn) -24.4%, Cc1ccc2c(c1)c1c(c(=O)n(-c3ccccc3)c(=O)n1CC(=O)NCC1CCCO1)n2C (stereo not drawn) 1.21%, O=c1n(Cc2ccccc2Cl)c2ccccc2c2nc(-c3ccccc3)nn12 1.4%, Cc1nn2c(=O)cc(COC(=O)c3ccc(NC(=O)COc4ccc(C)c(C)c4)cc3)nc2s1 -11%, COC(=O)C(C)Sc1ccc2nnc(CCNS(=O)(=O)c3ccc(C)cc3)n2n1 (stereo not drawn) -5.74%, Cc1ccc(C)c(NC(=O)n2ncc3cc(Cl)ccc32)c1 20.3%, Cc1ncc(CO)c2c1Oc1nc(-c3ccccc3Cl)nc(SCc3ccccc3F)c1C2 -29.4%, COCCCNC(=O)Cn1cnc2sc(C)c(S(=O)(=O)N3CCC(C)CC3)c2c1=O -8.85%, CC(C)NC(=O)c1ccc(Cn2c(SCC(N)=O)nc3ccccc3c2=O)cc1 -1.74%
